Source: PMC4336329 (PLoS ONE, 2015)
In all, about 310,000 compounds went through this assay and about 2,200 (0.71%) showed an effect of 50% or more. Effects have a minus sign here. Some of the results follow.

Molecular target: human ether-à-go-go-related gene (hERG) potassium channel (human, UniProt Q12809)
Assay: primary screen, population patch clamp on CHO cells stably expressing hERG

Sequence of human ether-à-go-go-related gene (hERG) potassium channel (Q12809 whole entry, looked up): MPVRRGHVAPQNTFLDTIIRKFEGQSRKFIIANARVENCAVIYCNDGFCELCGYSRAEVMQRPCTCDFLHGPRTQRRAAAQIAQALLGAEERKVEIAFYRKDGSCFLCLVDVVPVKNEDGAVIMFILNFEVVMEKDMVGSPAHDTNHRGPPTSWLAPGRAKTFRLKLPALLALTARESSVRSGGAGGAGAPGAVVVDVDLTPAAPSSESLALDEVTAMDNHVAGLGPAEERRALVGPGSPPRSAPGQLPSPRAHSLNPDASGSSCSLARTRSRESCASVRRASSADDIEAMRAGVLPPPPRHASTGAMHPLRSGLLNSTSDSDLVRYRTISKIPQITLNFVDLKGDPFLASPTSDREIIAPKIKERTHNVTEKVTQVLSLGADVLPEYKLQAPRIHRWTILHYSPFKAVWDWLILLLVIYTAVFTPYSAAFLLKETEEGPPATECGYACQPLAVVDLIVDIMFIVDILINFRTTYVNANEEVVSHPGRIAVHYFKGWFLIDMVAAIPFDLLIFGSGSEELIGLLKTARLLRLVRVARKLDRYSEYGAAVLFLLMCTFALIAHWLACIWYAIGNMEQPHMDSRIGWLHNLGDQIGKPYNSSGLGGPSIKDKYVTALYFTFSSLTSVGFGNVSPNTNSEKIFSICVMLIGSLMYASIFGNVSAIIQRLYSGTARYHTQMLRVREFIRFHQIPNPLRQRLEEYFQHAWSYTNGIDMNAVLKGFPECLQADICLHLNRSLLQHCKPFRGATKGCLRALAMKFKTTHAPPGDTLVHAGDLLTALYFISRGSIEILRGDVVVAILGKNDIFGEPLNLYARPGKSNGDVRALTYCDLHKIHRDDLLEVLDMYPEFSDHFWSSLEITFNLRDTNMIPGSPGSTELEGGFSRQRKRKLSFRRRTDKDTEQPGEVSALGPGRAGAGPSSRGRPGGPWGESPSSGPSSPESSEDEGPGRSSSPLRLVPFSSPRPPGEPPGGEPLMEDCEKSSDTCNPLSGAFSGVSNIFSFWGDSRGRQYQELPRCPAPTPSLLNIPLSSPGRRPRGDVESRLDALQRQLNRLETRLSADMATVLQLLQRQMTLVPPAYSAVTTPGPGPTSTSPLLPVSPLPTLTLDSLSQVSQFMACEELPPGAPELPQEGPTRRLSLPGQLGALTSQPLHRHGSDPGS

Compound	hERG current change (%, negative = inhibition) at 1uM
CCSc1ccccc1C(=O)NCCCn1ccnc1	15.9%
COC(=O)C1=C(C)NC(=O)/C1=C\c1cc(C)n(-c2ccccc2F)c1C	2.89%
Cc1cc(-c2nnc3n2CCCCC3)c(C)n1-c1ccccc1	3.35%
COc1ccc(S(=O)(=O)N2CCCCCC2)cc1NC(=O)Cc1cc(OC)c(OC)c(OC)c1	10.7%
Cc1ccc(NC2=NCC(=O)N2c2ccc3c(c2)OCCO3)c(C)c1	13.1%
C/C(=C\C(=O)c1ccc(C)o1)Nc1ccc2c(c1)OCO2	14.6%
CCOC(=O)Cc1csc(NC(=O)Cn2cnc3c2c(=O)n(C)c(=O)n3C)n1	10.1%
CCNC(=S)N1CC(C)OC(C)C1 (stereo not shown)	9.43%
S=P(Nn1cnnc1)(c1ccccc1)c1ccccc1	11.4%
CSc1ccccc1NC(=O)c1ccoc1C	-6.56%
COc1ccc(C2C(C#N)=C(N)OC(C(C)(C)C)=C2C#N)cc1OC (stereo not shown)	-23.3%
CCCN(c1ccc(C(C)C)cc1)S(=O)(=O)c1c(C)noc1C	14%
COc1ccc(CCn2c(O)c(C=NCCCn3ccnc3)c(=O)[nH]c2=O)cc1OC	14.1%
O=C(NCCCN1CCOCC1)c1cc(-c2ccc(F)cc2)no1	-1.56%
O=C1N(c2cccc(Cl)c2)C(c2ccc(Cl)cc2)N2CCCN12 (stereo not shown)	12.5%
CO/N=C/C=C1/N(C)c2ccccc2C1(C)C	12.5%
Cc1ccc(-c2csc(NC(=O)C3CCN(S(=O)(=O)c4cccs4)CC3)n2)cc1	12.8%
COc1ccc2cc1Oc1ccc(cc1)C[C@H]1c3cc(c(OC)cc3CCN1C)Oc1c(O)c(OC)cc3c1[C@H](C2)N(C)CC3	-10.8%
Cc1cccc(C)c1NC(=O)NN(C(=O)c1ccccc1)C(C)(C)C	4.55%
NC(=O)CCc1c[nH]c2ccccc12	12.2%

Compound	hERG current change (%, negative = inhibition) at 1uM
CC(C)C(=O)Nc1nnc(COc2ccc(Cl)cc2)s1	13.6%
CC(C)=CCc1c(O)cc(O)c2c1OC(c1ccc(O)cc1)CC2=O (stereo not shown)	12.7%
O=C1CN(S(=O)(=O)c2cc(C(F)(F)F)ccc2Cl)CCN1	-3.47%
COc1cc(/C=N/NC(=O)c2ccoc2C)ccc1O	13.3%
CN(C)C(CNC(=O)c1ccc(NS(=O)(=O)c2cccc([N+](=O)[O-])c2)cc1)c1ccco1 (stereo not shown)	7.44%
COc1cc(O)cc2c1C(=O)O[C@@H](C)CCCC(=O)CCCCC2	-3.14%
COc1ccc(CN(CCO)CCO)cc1[N+](=O)[O-].Cl	14.7%
COc1ccccc1-c1nc(SCC(=O)N2CCC(C(N)=O)CC2)n[nH]1	15.3%
N=c1c(C(=O)NCC2CCCO2)cc2c(=O)n3ccccc3nc2n1Cc1ccc(Cl)cc1 (stereo not shown)	-81.9%
O=C(Nc1cccc(-c2csc(Nc3ccc(Cl)cc3)n2)c1)c1ccccc1	9.26%
FC(F)(F)c1ccccc1/C=N/n1c(C2CCCCC2)n[nH]c1=S	12.9%
NC(=O)Nc1ccc(Nc2ccccc2)cc1	2.74%
CCN(CC)C(=O)Cn1cnc([N+](=O)[O-])n1	13.1%
COc1cc(OC)cc(-n2nc(C(=O)N3CC(C)CC(C)C3)c3ccccc3c2=O)c1 (stereo not shown)	-7.62%
CC1(C)CC(=O)C=C(Nc2cc(-c3ccccc3)[nH]n2)C1	-1.2%
N#CCCn1cc(C(=O)Nc2ccccc2Br)c(-c2cccs2)n1	4.63%
CCOc1cc(/C=N/n2nnnc2N)ccc1OCc1c(C)no[n+]1[O-]	6.26%
CC1CCc2ccc(F)cc2N1S(=O)(=O)c1cccs1 (stereo not shown)	4.77%
Cc1oc2cc([N+](=O)[O-])c(O)c([N+](=O)[O-])c2c1C(=O)c1ccc(Br)cc1	9.88%
Cc1cccc(CCN(Cc2cc3cccc(C)c3[nH]c2=O)C(=O)N2CCOCC2)c1	0.739%

Compound	hERG current change (%, negative = inhibition) at 1uM
COc1ccc(NC(=O)c2cc(-c3ccco3)nc3ccccc23)cn1	9.14%
CCc1nccn1S(=O)(=O)c1ccc2ccccc2c1	17.3%
CC(C)c1cc(C(=O)O)on1	1.61%
O=c1[nH]c2cc(Cl)c([N+](=O)[O-])nc2[nH]1	2.1%
COc1cccc(Nc2nc(-c3sc(NC(=O)c4ccccc4)nc3C)cs2)c1	16.3%
COc1ccccc1NC(=O)C(C)NS(=O)(=O)c1ccc(Cl)cc1 (stereo not shown)	13.3%
CCc1c(C(=O)Nc2ccccc2)c(C)[nH]c(=S)c1C#N	15.9%
Nc1nonc1-n1nnc(C(=O)N/N=C/c2cccnc2)c1CSc1ccc(Cl)cc1	8.68%
CC1CCN(S(=O)(=O)c2ccc(NC(=O)CCN3C(=O)C4CC=CCC4C3=O)cc2)CC1 (stereo not shown)	5.27%
CCNCc1cc2cc(C)ccc2[nH]c1=O	10.2%
Cc1ccc(-n2[nH]c(C)c(C=Nc3cc(C)ccn3)c2=O)cc1	7.39%
Cc1ccccc1NC(=O)c1ccc(NC(=O)c2ccco2)cc1	8.28%
CCC(=O)c1cn(CC(=O)Nc2c(C)cccc2C)c2ccccc12	14.4%
COc1cc(OC)cc(C(=O)Nn2cnnc2)c1	11.2%
CC(C)CNC(=O)c1ccccc1Oc1ccccc1	-0.702%
CC(C)c1ccc(N(CC(=O)NC2CCCCC2)C(=O)CCC(=O)Nc2ccccn2)cc1	11.3%
C=CCn1c(SCC(=O)c2cccs2)nc2sc(CC)cc2c1=O	7.02%
O=C(NNC(=O)C1CC(c2cccnc2)=NO1)Nc1cccc(F)c1 (stereo not shown)	-0.89%
